# Laboratory results reported in ChEMBL document CHEMBL4888484, “Replenishing the malaria drug discovery pipeline: Screening and hit evaluation of the MMV Hit Generation Library 1 (HGL1) against asexual blood stage Plasmodium falciparum ,using a nano luciferase reporter read-out” (2022).
# The campaign covered roughly 150,000 compounds. About 540 (0.36%) showed an effect of 50% or more. The list shows a part of the results.
# Tested on: Plasmodium falciparum
# Assay: Primary screen in NF54 nanoGlo assay, in single point, at 2uM, 72h; a lower Z score goes with more inhibition
# Assay type: functional, Erythrocyte
# Details: timepoint 72 hour
SMILES,% Inhibition,Z score
CC[C@@H](O)CNC(=O)[C@@H]1CCCN(C(=O)OC(C)(C)C)[C@@H]1C,-6%,0.83
CC(=O)NCCNCc1cc2cc(C)ccc2nc1OCc1cccc(F)c1,-3%,0.51
COc1ccc(-n2nc(C)nc2-c2cnn(C)c2C)cc1,11%,-1.48
CCOC(=O)N1CCN(C(=O)C2CCC(Cn3cnnn3)CC2)CC1 (stereo unspecified),-4%,0.68
Cc1cncc(C(=O)NC[C@H](Cc2cnn(C)c2)C(N)=O)c1,-7%,0.68
O=C(Cn1cnnc1)NC(c1ccc(F)cc1F)[C@H]1C[C@@H](O)C1 (stereo partly specified),-8%,1.34
CCOC(=O)[C@H]1CCCN(C(=O)c2nn(-c3ccc(C)c(Cl)c3)c(=O)n(CC)c2=O)C1,-6%,0.61
Cc1ccc(CNC(=O)c2cccc(Oc3cc(-c4cccc(F)c4)ncn3)c2)cc1,-12%,1.54
COc1ccc(-c2cc3n(n2)CCCN(C(=O)c2ccc(F)cc2)C3)cc1OC,-10%,1.09
Cc1cn2c(S(=O)(=O)NCc3ccco3)c(C(C)C)nc2s1,38%,-4.81
COc1cccc(CN[C@@H](C)c2ccc(N3CCN(C)CC3)cc2)c1,11%,-1.17
C[C@@H](C(=O)NC1CCCC1)S(=O)(=O)Cc1cccc2ccccc12,-6%,0.75
CCN1CCOCC1C(=O)OC(C)C(=O)NC(N)=O (stereo unspecified),-8%,0.8
COc1cc(CNc2nccs2)cc(Br)c1OCc1ccc(F)cc1,-13%,1.77
CN1CN(C(=O)NCc2cnccc2C(C)(C)C)CC1=O,3%,-0.35
COc1ccc2c(c1)C(N1CCN(C(=O)NCc3cccc(C)c3)CC1)=Nc1ccccc1O2,-3%,0.47
CCC(C)(C)CC(=O)N[C@@H](Cc1ccccc1)c1n[nH]c(=O)[nH]1,8%,-0.92
CN1C(=O)[C@H]2CN(C(=O)c3cccc4cc[nH]c34)C[C@H]2C1=O,-11%,1.26
CN(C)C(=O)NCCNC(=O)C(C)(C)c1ccc(Cl)cc1F,-3%,0.26
CCN1Cc2nc(OC)c(CN[C@H]3CCCOC3)cc2C1=O,5%,-0.71
Cc1nnc2sc(Nc3ccccc3)nn12,38%,-4.86
COc1c(F)cccc1C(=O)NCC1=CCCCC1,-4%,0.51
O=C(OCc1ccc(Cl)cc1)c1ccccc1N1C(=O)c2ccccc2C1=O,-2%,0.25
CCOc1ccc(-c2ccnc3c(C(=O)NCc4ccc(OC)c(OC)c4)cnn23)cc1,34%,-3.9
Cc1nc2ccccc2n1CC1CCN(CC#N)CC1,-2%,0.2
COCCCN1CC(=O)N[C@@H]2CN(C(=O)C3CCOCC3)CC[C@@H]2OCc2cccc(c2)Oc2cc(ccc2OC)C1,6%,-0.8
CN1C[C@@H]2C[C@H]1C(=O)N[C@@H](Cc1ccccc1)C(=O)NCc1cn(nn1)CCCOc1cc(Cl)ccc1C(=O)N2,-2%,0.37

SMILES,% Inhibition,Z score
O=S(=O)(c1ccc(-c2ccc(Cl)cc2)cc1)N1CCN(c2ccccc2)CC1,-5%,0.69
COCC(=O)N[C@@H](C)c1cncs1,-1%,0.23
Cc1nccn1CCN(C)C(=O)C[C@H]1CCOC1,-8%,1.55
OC1=Nc2c(ncn2-c2cc(F)cc(F)c2)[C@@H](c2cccnc2)C1,34%,-3.88
Cc1ccc(S(=O)(=O)NCc2ccnc(N(C)C)c2)cc1N(C)C,4%,-0.77
Nc1ccc(-c2nc3ncccc3o2)cn1,1%,-0.1
CCN1CCN(C(=O)c2ccc(-c3nc(C)nc4c3cnn4C)cc2)CC1=O,-8%,1.41
Cn1nccc1CNc1cc(C(F)(F)F)cc2c1OCC(=O)N2,-11%,1.75
COC(=O)[C@@H](c1ccccc1C)N1CCC(n2ccnn2)CC1,-1%,0.15
COc1cc2cc(c1)C(=O)NCCCC(=O)N[C@H]1CN(Cc3ccc(OCCO)cc3)CC[C@@H]1OCc1cccc(c1)O2,0%,0.07
CNC(=O)[C@@H]1CCCN1CC(C)=Cc1ccccc1,-4%,0.57
COc1ccc(Cn2c(CN)nc3cccnc32)cc1,4%,-0.74
CCN1CCN(C(=O)c2ccc3nc(-c4cccc(OC)c4)oc3c2)[C@@H](C)C1=O,-9%,1.61
Cc1cccc(Nc2nnc(CC(=O)N[C@@H](C)c3ccc(F)cc3)s2)c1,8%,-0.88
N#CC1(CNS(=O)(=O)c2cccnc2OCC(F)F)CCCCC1,-5%,0.44
Cc1ccc(N2CC[C@@H]3N(Cc4ccoc4)CCC[C@@]3(CO)C2)nn1,-2%,0.35
CN1CC2(CCN(c3ccncc3)CC2)C[C@@H](c2ccccc2)C1=O,-6%,1.16
C1=CCC2CN(c3nccn4cnnc34)CC2C1 (stereo unspecified),0%,0.03
Cc1cc(C(=O)N2CC[C@@]3(CCCN(C4CCCC4)C3=O)C2)cc(=O)[nH]1,5%,-0.88
Cc1ccc([C@H](CCO)NC(=O)Cn2nc(C)cc2N)cc1,-8%,1.21
CC1CCN(Cc2nnnn2CC(=O)N(CC2CCC2)C[C@H]2CCCO2)CC1,-3%,0.36
CN(C)C(=O)C1CCN(C(=O)C2c3ccccc3Oc3ccccc32)CC1,1%,-0.16
Cc1noc([C@@H](C)NC(=O)CC(C)C)c1C(=O)O,27%,-1.93
COc1cccc2c3c(cnc12)C(=O)NCCN3,-13%,1.47
CCCC(=O)N[C@H]1CCCN(C(=O)Cn2cc(S(=O)(=O)N(CC)CC)ccc2=O)C1,-17%,1.78
COc1cccc(CC(=O)N[C@@H]2c3ccccc3C3(CCNCC3)[C@H]2O)c1,11%,-1.48
